Data reported in PubChem BioAssay AID1508642 (National Center for Advancing Translational Sciences (NCATS), 2021).
In all, about 43,000 compounds went through this assay and about 200 (0.47%) were called active. About 12% were inconclusive and are not listed. Calls follow the shape of the dose curve; as a rule, active = well fitted cell-killing curve with a large enough effect; inconclusive = small, poorly fitted or top-dose-only effect, or effect the other way; inactive = flat fitted curve, though single readings scatter. The list shows a part of the results.

Assay: Cell viability qHTS assay in S16 Pmp22-F2sN cells; also: nearly all actives have a fitted effect of over 65% in size
Settings: S16 Pmp22-F2sN Schwann cells (luciferase reporters placed in the Pmp22 gene) viability, CellTiter-Glo, 24 h; series mostly up to 57.5 µM; activity change, negative = cytotoxicity: at the top concentration
Summary of the method: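 Luminescence from CellTiter-Glo, read by CCD camera after a 15 min room-temperature incubation, served as the viability signal. Reporter Schwann cells (S16 Pmp22-F2sN) had been treated with pin-transferred compounds for 24 h at 37C.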
% is scaled to controls: 0 for no effect and ±100 for the full control effect.

SMILES | activity change, negative = cytotoxicity
CCCOc1ccc(Nc2cc(C)nc(C)n2)cc1 | inactive: 9.22%
COCCCNS(=O)(=O)c1ccc(N2CCCCS2(=O)=O)cc1 | inactive: -2.78%
COc1ccc(C(=O)Oc2c(Sc3ccccc3)c(C)nn2-c2ccccc2)cc1OC | inactive: 8.77%
Cc1ccc(NC(=O)CN2C(=O)CSc3ccc(S(=O)(=O)N4CCCC4)cc32)c(C)c1 | inactive: 5.07%
O=C(Nc1ccc2nc(SCC(=O)N3CCCc4ccccc43)sc2c1)c1cccc(Cl)c1 | inactive: -11%
COc1ccc(CCNC(=O)C2CCN(c3nc4ccccc4nc3C(F)(F)F)CC2)cc1OC | inactive: -21.3%
O=C(Cc1ccc(F)cc1)NCCc1csc(-c2cccc(F)c2)n1 | inactive: 13%
CC(C)NC(=O)N1CCC(N2CCN(Cc3ccc(F)cc3)C(=O)C2=O)CC1 | inactive: 6.54%
CCOc1ccc(N(CC)S(=O)(=O)N2CCCC(C(=O)NCc3ccc(Cl)cc3)C2)cc1 (configuration not stated) | inactive: -21.5%
COc1ccc(-c2noc(Cn3c(=O)c4ccccc4n(CC(=O)Nc4cccc(C(F)(F)F)c4)c3=O)n2)cc1 | inactive: -25.2%
Cc1ccc(C)c(NS(=O)(=O)c2ccc3c(c2)n(C)c(=O)n3C)c1 | inactive: -2.92%
Cc1oc(-c2cccc(Br)c2)nc1Cn1c(=O)cc(-c2ccccc2)c2c(C)nn(C)c21 | inactive: -2.04%
CCc1nc2onc(C)c2c(=O)n1CC(=O)O | inactive: 12.4%
O=C(c1cccc(Cl)c1)N(Cc1ccco1)Cc1ccccc1Cl | inactive: 0.537%
Cc1ccccc1-c1nc(CS(=O)(=O)CC(=O)Nc2cccc(C(F)(F)F)c2)c(C)o1 | inactive: 16.6%
COc1ccc2c(c1)c1c(c(=O)n(Cc3ccccc3)c(=O)n1CC(=O)Nc1c(C)cccc1C)n2C | inactive: -1.26%
Cc1ccc(S(=O)(=O)NCCc2sc3nc(-c4ccccc4)nn3c2C)cc1C | inactive: -23%
CCn1c(SCC(=O)N2CCC(C)CC2)nnc1-c1ccccc1O | inactive: -5.67%
CSc1cccc(NC(=O)Cn2nc(C)c3sc4ccccc4c3c2=O)c1 | inactive: -17.7%
Cc1cccc(-c2nnc(SCC(=O)N3CCCc4ccccc43)o2)c1 | inactive: -1.74%
COc1cc2c(cc1OC)C(COc1ccc(F)cc1)N(C(=O)c1ccccc1F)CC2 (configuration not stated) | inactive: 13.6%
CC(C)OCCCN(C)C1CCN(S(=O)(=O)c2csc(C(N)=O)c2)CC1 | inactive: 3.42%
CCOCCCNC(=O)Nc1cc(C(=O)NCc2ccc(C(C)C)cc2)ccc1N1CCCC1 | inactive: 4.62%
COc1ccc(-n2c(C)nc3cc(C(=O)NC4CCCC4)ccc32)cc1 | inactive: 1.75%
Cc1ccc(S(=O)(=O)c2nnn3c2nc(NCc2cccs2)c2sccc23)cc1C | inactive: -1.55%

SMILES | activity change, negative = cytotoxicity
Cc1cc(C)cc(NC(=O)C2CCN(c3cc(C)nc4c(-c5ccc(Cl)cc5)c(C)nn34)CC2)c1 | inactive: -5.98%
COC(=O)C(C)NC(=O)N1CCN(c2nnc(C)c3c(C)n(-c4ccc(Cl)cc4)nc23)CC1 (configuration not stated) | inactive: 1.22%
CC(C)N(C(=O)c1cc2c(Cl)nc3ccccc3c2s1)C1CCCCC1 | inactive: 4.24%
COc1cccc2sc(N3CCN(C(=O)CS(=O)(=O)c4ccc(Cl)cc4)CC3)nc12 | inactive: 0.252%
COc1cccc(CNc2ncc(-c3ccc(Br)cc3)n2C)c1 | inactive: 8.73%
COc1ccc(-n2c(SCC(=O)Nc3nnc(C)s3)nc3c([nH]c4ccccc43)c2=O)cc1 | inactive: -15.1%
CCOC(=O)c1scc(-c2ccc(C)cc2)c1S(=O)(=O)Nc1cccc(CC)c1 | inactive: 6.3%
O=C(NCCCN1CCN(c2ccccc2)CC1)c1nnc(Cc2ccc(F)cc2)o1 | inactive: -2.38%
O=C(O)CC(NS(=O)(=O)c1ccc(Br)s1)c1ccccc1 (configuration not stated) | inactive: 6.87%
Cc1cc(C)c(S(=O)(=O)N2CCN(Cc3nc4ccc(C)cc4o3)CC2)c(C)c1 | inactive: -11.4%
CC1=C(C(=O)Nc2cc(C)ccc2C)C2(CCCCCC2)OC1=O | inactive: -4.98%
Cc1cccc(C(=O)Nc2cc3c(cc2N2CCOCC2)n(C)c(=O)n3C)c1 | inactive: 15.9%
CCOC(=O)c1ccccc1Nc1cc(C)nc2nc(-c3ccco3)nn12 | inactive: -0.61%
Cn1c(SCC(N)=O)nc2c([nH]c3ccccc32)c1=O | inactive: 18.3%
O=C(O)c1ccc(Nc2nc(-c3ccccc3)c3cc(Br)ccc3n2)cc1 | inactive: 1.68%
COc1ccc(-c2nc3ccc(NS(C)(=O)=O)cc3o2)cc1 | inactive: 8.87%
Clc1ccccc1Cn1cccc1C1=NC(Cc2ccccc2)CO1 (configuration not stated) | inactive: 23.2%
Fc1ccc(-c2nc(-c3cccs3)c(-c3cccs3)[nH]2)cc1 | inactive: -0.297%
Cc1nn(-c2ccccc2)c2c1N(CC(=O)NCc1ccc(N(C)C)cc1)C(=O)CS2 | inactive: -24%
Cc1cccc(NC(=O)CSc2nc3ccc(NC(=O)COc4ccc(Cl)cc4)cc3s2)c1 | inactive: -3.04%
Cc1c(NC(=O)Cc2ccc(F)cc2)cccc1-c1nc2cccnc2s1 | inactive: 2.31%
Cc1ccc(N(Cc2cccs2)C(=O)c2ccccc2)cc1 | inactive: 2.1%
O=C(NCCOCCO)C(=O)Nc1c2c(nn1-c1ccc(F)cc1)CSC2 | inactive: 6.34%
CCC(=O)N1CCc2cc(S(=O)(=O)CCC(=O)N3CCN(c4ccccc4Cl)CC3)ccc21 | inactive: 17.5%
CN(c1ncnc2c1c(-c1ccccc1)cn2-c1ccc(F)cc1)C1CCCCC1 | inactive: -4.95%

SMILES | activity change, negative = cytotoxicity
Cc1ccc(CNC(=O)C2CCN(C(=O)c3ccc(-n4ccc5ccccc54)s3)CC2)cc1 | inactive: -1.26%
COc1ccc(-c2cn3c(n2)sc2cc(C(=O)NCc4cccs4)ccc23)cc1 | inactive: 13.1%
COc1ccc(-c2c3c(=O)n(C)c(=O)n(C)c3cn2-c2cccc(N)c2)cc1 | inactive: -12.7%
Cc1ccc(-n2nnc(-c3nsc(NC(=O)c4ccccc4C)n3)c2C)cc1Cl | inactive: 12.9%
CCOc1ccc(Nc2c(S(=O)(=O)c3ccc(Cl)cc3)cnc3ccc(OC)cc23)cc1 | inactive: -22.2%
CCn1cc(C(=O)NCCc2ccc(Cl)cc2)c(=O)c2cc(S(=O)(=O)N3CCc4ccccc4C3)ccc21 | inactive: 5.2%
COc1ccc(Cn2ccc3nc(C)c(C(=O)Nc4ccc(F)cc4)cc3c2=O)cc1 | inactive: 3.29%
O=C1CCc2cc(S(=O)(=O)NCc3ccc(Cl)cc3)cc3c2N1CC3 | inactive: 36.2%
COc1cccc(-c2nnc(-c3cc4cc(Cl)ccc4oc3=O)o2)c1 | inactive: 5.86%
COc1ccccc1NC(=O)c1oc2ccccc2c1NC(=O)C(C)C | inactive: 17.2%
Cc1cccc(NC(=O)CSc2nnc3scc(-c4ccccc4)n23)c1 | inactive: -7.79%
COc1ccccc1NC(=O)Cn1cnc2c(nc3n2CCCCC3)c1=O | inactive: 13.2%
CCC1CCC(C(=O)NC(C(=O)NCCN(CC(C)C)CC(C)C)C(C)C)CC1 (configuration not stated) | inactive: 7.27%
Cc1ccccc1CNC(=O)c1ccccc1NC(=O)c1nsc2ccccc12 | inactive: 5.81%
CC(C)(C)c1ccc(CSc2nc3c(c(=O)[nH]2)CCCC3)cc1 | inactive: 2.96%
O=C(Nc1ccc(Cl)c(C(F)(F)F)c1)C1CCCN(S(=O)(=O)c2cccc3cccnc23)C1 (configuration not stated) | inactive: -7.49%
CC1CCN(S(=O)(=O)c2ccc3c(c2)c(=O)c(C(=O)NCc2ccc(Cl)cc2)cn3C)CC1 | inactive: -18.6%
COc1cc(-c2noc(CSc3nc(-c4ccc(F)cc4)cc(=O)[nH]3)n2)cc(OC)c1OC | inactive: -1.35%
CCN1CCN(c2csc3ccc(F)cc3c2=O)CC1 | inactive: -0.651%
COc1cccc(-c2nnc3n(Cc4ccc(C)cc4)c(=O)c4ccccc4n23)c1O | inactive: -0.344%
COc1ccc(-c2nc3scc(CCNS(=O)(=O)c4c(C)noc4C)n3n2)cc1OC | inactive: -0.478%
COc1cccc(CNC(=O)c2[nH]c3cc(C)ccc3c2Sc2ccccc2)c1 | inactive: -13.5%
CCOC(=O)c1c(S(=O)(=O)NCC(=O)N2CCN(c3cccc(Cl)c3)CC2)c(C)n(C)c1C | inactive: -20%
Cc1cccn2c(=O)cc(CSc3nnc(NC(=O)COc4ccc(F)cc4)s3)nc12 | inactive: -0.819%
CCCOc1ccc(C(=O)Nc2ccc3oc(-c4ccc5ccccc5c4)nc3c2)cc1 | inactive: 2.28%

SMILES | activity change, negative = cytotoxicity
CC(=O)c1cccc(NC(=O)CSc2nnc3ccc(-c4ccc(F)cc4)nn23)c1 | inactive: 2.36%
Cn1c(=O)c2c(nc(Oc3ccc(C#N)cc3)n2Cc2ccc(Cl)cc2Cl)n(C)c1=O | inactive: 5.06%
CCOC(=O)c1ccccc1NC(=O)Cn1c(=O)n(CCC(=O)NCc2ccccc2OC)c(=O)c2ccccc21 | inactive: 16.3%
O=C(NCCc1ccccc1)c1cc(-c2ccc(Br)cc2)on1 | inactive: 6.58%
CCOC(=O)c1c(C)oc2ncnc(N3CCN(c4ccc(C)cc4C)CC3)c12 | inactive: 17.4%
Cc1sc2ncn(CC(=O)Nc3ccc(F)cc3Cl)c(=O)c2c1S(=O)(=O)N1CCN(c2ncccn2)CC1 | inactive: 23.2%
CCOC(=O)c1cccc(-n2nnc3c(sc4nc(C)c(Br)c(C)c43)c2=O)c1 | inactive: -2.8%
O=C(Nc1ccc(Br)cc1F)c1cc(S(=O)(=O)NC2CCCC2)ccc1F | inactive: -6.53%
COc1cc(C2CC(=O)c3c([nH]c(C(=O)OCc4ccc(C)cc4)c3C)C2)cc(OC)c1OC (configuration not stated) | inactive: -2.7%
Cc1cccc(C(c2sc3nc(-c4ccco4)nn3c2O)N2CCN(Cc3ccccc3)CC2)c1 (configuration not stated) | inactive: -2.66%
CCOC(=O)c1ccccc1NC(=O)Cn1c(=O)n(CCC(=O)N2CCc3ccccc3C2)c(=O)c2ccccc21 | inactive: 9.93%
COc1ccccc1-c1nnc(C2CCN(C(=O)c3cccc(Cl)c3)CC2)o1 | inactive: 6.14%
COc1cc(NC(=O)c2cc(Cl)ccc2Cl)ccc1NC(=O)c1cc2ccccc2o1 | inactive: 25.5%
Cc1ccc(NC(=O)/C=C/c2ccc(Cl)cc2)c(Br)c1 | inactive: 12.4%
CCS(=O)(=O)N1CCc2cc(C(=O)NCc3ccc(Cl)cc3)ccc21 | inactive: 16.4%
CN(C)c1ccc(CNC(=O)c2cnc3sc(N4CCCC4)nn3c2=O)cc1 | inactive: 1.73%
COCCCNC(=O)c1[nH]c2ccccc2c1Sc1ccc(C)cc1 | inactive: 7.43%
Cc1ccccc1NC(=O)Cn1c(=O)n(CCCCCC(=O)NCc2ccccc2Cl)c(=O)c2sccc21 | inactive: 7.72%
CCNc1nc(N)nc(Oc2ccc(OCC(=O)OC)nn2)n1 | inactive: 0.777%
CCN(CC)CCNc1ncnc2c1cnn2-c1cc(Cl)ccc1C | inactive: -3.7%
CCOc1ccc(-c2nc(CNC(=O)NC3CCCCC3)c(C)o2)cc1 | inactive: 6.73%
Cc1ccc(C(=O)Nc2nc3nc(C)cc(=O)n3[nH]2)cc1 | inactive: 12.9%
